Laboratory results as given in PubChem BioAssay AID1963836 (Molecular Pharmacology Branch, DTP, NCI, 2024).
Not every entry of the source has a single result; some have several. They are shown here; other results are not. An entry can have further records. Results that share an entry are repeats across runs, samples, wells, individuals or studies. Brackets with × give the number of equal values in this list.

System: 857933-349-R-J2-PDC complex spheroid viability
Test: Anticancer human tumor 857933-349-R-J2-PDC patient-derived colon adenocarcinoma cell line growth inhibition [POLQ]
Details: stronger effect = lower value
Experimental: Multicellular complex tumor spheroid response to Polymerase (POL) inhibitors (novobiocin, ART-558, RP6685) in combination with a variety of drugs and investigational agents in selected tumor cell lines
The POL inhibitors (novobiocin, ART-558, and RP6685) were evaluated both individually and in combination with standard of care and investigational anticancer small molecules within a complex spheroid model of solid tumors. . Complex spheroids include a stromal component modeled by human endothelial cells (HUVEC) and fibroblasts modeled by human mesenchymal stem cells (MSCs). The concentration ranges selected for each drug and investigational agent were based upon clinically achievable concentrations if the clinical Cmax of the agent was known.
Compounds. The drugs and investigational agents: novobiocin (NSC847541), ART-558 (NSC835418), RP-6685 (NSC848927), peposertib (NSC802822), ceralasertib (NSC780249), elimusertib (NSC800525), camonsertib (NSC841442), AZD-1390 (NSC803789), olaparib (NSC753686), talazoparib (NSC767125), rucaparib (NSC756644), sotorasib (NSC818433), MRTX-1133 (NSC836407), SN-38 (NSC673596), topotecan (NSC609699), epotoside (NSC141540), doxorubicin (NSC123127), gemcitabine (NSC613327), 5-fluorouracil (NSC19893), paclitaxel (NSC125973), vemurafenib (NSC761431), MSA-2 (NSC828583), SN-011 (NSC837082), adavosertib (NSC754352), prexasertib (NSC758257), carboplatin (NSC241240) and oxaliplatin (NSC266046), were obtained from the National Cancer Institute (NCI) Developmental Therapeutics Program Chemical Repository (21). The FDA-approved anticancer drug set is available from the Developmental Therapeutics Program at https://dtp.cancer.gov/organization/dscb/obtaining/. […] The stock solutions were prepared in dimethyl sulfoxide (DMSO, Sigma-Aldrich, St. Louis, MO, cat. D2650), except for the platinum compounds which were prepared in saline (Quality Biological, Gaithersburg, MD, cat. 114-055-101), at 800-fold the tested concentration and stored at -70 degrees C prior to their use. All drugs and investigational agents were tested over a range starting from a high concentration at or near the clinical Cmax and decreasing in half-log increments. If the clinical Cmax for an agent had not been determined, the highest concentration tested was 10 microM, except for SN-38, which was tested at a high concentration of 1 microM.
Cell Culture. All cells were maintained in an incubator at 37 degrees C and 5% CO2 with 95% humidity. The PDC lines were cultured according to standard operating procedures established by the NCI PDMR (https://pdmr.cancer.gov). Table 3 of the manuscript, lists the cell lines along with the number of the three cell types plated to form the mct-spheroids and media for tumor cell growth. After thawing, all PDC lines, except 997537-175-T-J1-PDC and 415267-285-R-J2-PDC, were cultured in Matrigel-coated flasks prepared with a working solution of 1X Ham's F-12 nutrient mix, without supplementation (Thermo Fisher Scientific, cat. 11765054), 100 U/mL penicillin-streptomycin (Thermo Fisher Scientific, cat. 15140122), and 2.5% Matrigel (Corning Inc., Corning, NY, cat. 354248) for the first three passages. The two PDC lines 997537-175-T-J1-PDC and 415267-285-R-J2-PDC were cultured on uncoated flasks. The 857933-349-R-J2-PDC line was cultured in 6C/Colon 1B media containing advanced DMEM/F-12 (Thermo Fisher Scientific, cat. 12634028), 10 mM HEPES (Thermo Fisher Scientific, cat. 15630080), 1X GlutaMAX supplement (Thermo Fisher Scientific, cat. 35050061), 0.1 mg/mL primocin (InvivoGen, San Diego, CA, cat. ant-pm-2), 10% defined fetal bovine serum, heat inactivated (HyClone Laboratories Inc., Logan, UT, cat. SH30070.03HI), 50% L-WRN conditioned media (ATCC, cat. CRL-3276), 1.25 mM N-Acetyl-L-cysteine (Sigma-Aldrich, cat. A9165), 10 mM nicotinamide (Sigma-Aldrich, cat. N0636), 1X B-27 supplement (Thermo Fisher Scientific, cat. 17504044), 1X N-2 supplement (Thermo Fisher Scientific, cat. […]
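Note: spheroids exposed to compounds for seven days before readout.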

SMILES	viability, T/C (compound alone 3.16 µM)	viability, T/C (compound alone 0.1 µM)	viability, T/C (compound alone 0.316 µM)	viability, T/C (compound alone 1 µM)	viability, T/C (compound alone 10 µM)	viability, T/C (compound alone 0.0316 µM)
Nc1ccc(C#CCN(C(=O)Cc2ncc(C(F)(F)F)cc2C(F)(F)F)c2ccc(F)cc2)nn1	103 (2×), 98.9, 100, 104, 96.4, 93.5, 111, 96.3, 85.9, 96.6, 97.3, 98.6%	–	–	–	–	–
Cc1cccc(N(C)C(=O)C2C(O)CCN2c2nc(C)cc(C(F)(F)F)c2C#N)c1 (configuration not stated)	94, 108, 85.2, 96.7, 103, 101, 91.9, 82.5, 116, 115, 102, 95.8, 109%	109, 92.9, 99.6, 100, 79.3, 87.9, 88, 131, 88.5, 99.3, 108, 87.7, 103%	74.3, 92.2, 109 (2×), 79.1, 79.8, 93.7, 83.2, 83.5, 96.8, 93.9, 110, 103%	84, 103, 89.1, 83.5, 89.4, 113, 61.4, 102, 96.9, 99.3, 104, 109, 112%	107, 97.3, 93.4, 95.6, 80.4, 94.4, 76.2, 104, 94.1, 105, 86.5, 100, 97.1%	–
COC1C(OC(N)=O)C(O)C(Oc2ccc3c(O)c(NC(=O)c4ccc(O)c(CC=C(C)C)c4)c(=O)oc3c2C)OC1(C)C (configuration not stated)	94.6, 114, 107, 100, 110, 87.1, 101, 99.1, 111, 83, 96.8, 84, 105%	90.1, 94.7, 98.7, 84.4, 97.1, 117, 78.1, 80.1, 91, 107, 118, 94, 102%	93.2, 92.6, 93.9, 107 (2×), 89, 89.1, 93.6, 105, 82.6, 121, 73.9, 89.5%	84.1, 114, 120, 90, 88.3, 94, 104, 99.7, 93.4, 84, 84.3, 92.4, 93.5%	91.2, 92.5, 107, 91.4, 88.6, 117, 101, 112, 99.1, 76, 94.2, 91.5, 93.3%	106, 89.9, 86.2, 84.9, 83.6, 83.4, 95, 89.2, 114, 78.5, 104, 101, 73%
